According to PubChem BioAssay AID493208 (National Center for Advancing Translational Sciences (NCATS), 2011):
The campaign covered roughly 44,000 compounds. About 340 (0.77%) were called active. Roughly 5% stayed inconclusive and do not appear here. Calls come from the whole dose curve; as a rule, active = well fitted inhibition curve with a large enough effect; inconclusive = small, poorly fitted or top-dose-only effect; inactive = flat fitted curve, though single readings scatter. Some of the results follow.

Test: Acumen qHTS Assay for Inhibitors of the mTORC1 Signaling Pathway in MEF (Tsc2-/-, p53-/-) Cells: Sytravon; note: nearly all actives have a fitted effect of over 50% in size;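 for activity change, negative = inhibition: plate controls were DMSO for no effect and rapamycin for full effect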
Conditions: phospho-rpS6 immunofluorescence/PI, 24 h; series mostly up to 38.3 µM; activity change, negative = inhibition: at the top concentration
Procedure, shortened: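 Compounds act on Tsc2-/-, p53-/- fibroblasts carrying an empty vector for 24 h before fixation and dual staining for phospho-S6 and DNA (propidium iodide). Values are percentages of cells above a rapamycin-defined pS6/PI threshold.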
Potency is the fitted concentration of half-maximal effect.

Activity change, negative = inhibition, inactive:
COc1ccc(S(=O)(=O)N2CCC(Oc3ccc(-n4cnnn4)cc3)CC2)cc1 -2.1%
COc1cccc(OC)c1C(=O)NCCc1sc(-c2cccc(F)c2)nc1C 8.82%
CCOc1ccc2c(c1)c(=O)c(C(=O)c1ccc3c(c1)OCO3)cn2Cc1ccc(F)cc1 1.01%
CCc1ccc(C2C(C(=O)Nc3ccccc3OC)=C(C)Nc3c(C(=O)Nc4ccc(C)cc4)cnn32)cc1 (stereo not given) 3.58%
COc1cccc(CNC(=O)c2cnc3c(-c4ccc(F)cc4)c(C)nn3c2C)c1 1.78%
CCN(C(=O)c1cn(-c2cccc(OC)c2)c(=O)c2ccccc12)c1ccccc1C 8.71%
COc1ccc(C(=O)Nc2ccccc2-c2nc3ccccc3s2)cc1OC -0.612%
Cc1ccc(C)c(NC(=O)CSc2nccn2-c2cccc(C)c2C)c1 -1.86%
Cc1ccc(-n2nc(C)c(C(=O)NCCCN3CCN(c4ccccc4F)CC3)c2-n2cccc2)cc1 -23%
CCOC(=O)c1cnc2c(C)cc(C)cc2c1Nc1ccc(N2CCOCC2)cc1 -1.54%
CCCOc1ccccc1C(=O)Nc1nc2c(s1)CCCC2 -1.63%
CN(Cc1ccccc1)C(=O)c1ccc2c(c1)N(Cc1ccc(Cl)cc1)C(=O)c1ccccc1S2=O (stereo not given) -7.99%
Cc1oc(-c2ccc(Cl)cc2)nc1CN1CCCC(C(=O)NCc2ccc(Cl)cc2)C1 (stereo not given) -8.42%
Cc1nnc(N2CCC(C(=O)NCc3cccc(Cl)c3)CC2)c2nn(-c3ccccc3)c(C)c12 -4.45%
COc1cccc(NS(=O)(=O)c2ccc3[nH]cc(C(=O)N(C)Cc4ccco4)c(=O)c3c2)c1 1.26%
CC(C)c1ccc(NC(=O)CSC2=Nc3ccccc3C3=NC(CC(=O)NCc4ccco4)C(=O)N23)cc1 (stereo not given) 2.33%
COc1ccc(NC(=O)c2ccc3c(=O)n4nc(Nc5ccccc5C)sc4nc3c2)cc1 -3.49%
O=c1c2ccccc2n2c(-c3cccc(F)c3)nnc2n1Cc1ccccc1 7.44%
Cn1c(=O)c2c(c3ccccc31)OC(=O)CC2c1ccccc1 (stereo not given) 0.789%
CCOC(=O)N1CCN(C(=O)c2cnn(-c3cccc(C)c3)c2-n2cccc2)CC1 -4.33%
Cc1cccc(N2CCN(C(=O)c3c4c(nc5ccccc35)C(=O)N(C3CCCCC3)C4)CC2)c1C -10.4%
CN(C)c1ccc(-c2nc3ccccn3c2Nc2ccc3c(c2)OCCO3)cc1 -0.367%
COc1ccc(OC)c(NC(=O)c2cc3c(=O)n4cccc(C)c4nc3n2C)c1 6.63%
Cc1ccc(N(C)C(=O)c2noc3c2CCCCC3)cc1C 1.21%
Cc1ccc(CC(=O)NCc2nc(-c3cccc(C)c3)no2)cc1 4.28%
Cc1cccc(C)c1OCc1cc(=O)n2ccsc2n1 -8.92%
COc1cccc(NC(=O)CSc2nnc(NC(=O)NC3CCCCC3)s2)c1 -4.13%
COc1cc(OC)c(NC(=O)C(C)n2nc(-c3ccc(C)c(C)c3)ccc2=O)cc1Cl (stereo not given) 0%
Cc1ccc(NC(=O)N2CCc3c([nH]c4ccccc34)C2c2ccccc2F)c(Cl)c1 (stereo not given) -13.4%
O=C(Cn1c(=O)c2sccc2n(CC(=O)Nc2ccc(Cl)cc2Cl)c1=O)NCCc1ccccc1 5.14%
COc1cccc(C(=O)c2cn(CC(=O)Nc3cccc(Cl)c3C)c3nc(C)ccc3c2=O)c1 -4.73%
CSc1ncc(C(=O)NCc2cccc(Br)c2)c(-c2ccccc2)n1 -12.8%
COCCN1C(=O)c2oc3ccc(C)cc3c(=O)c2C1c1ccc(C(=O)OC)cc1 (stereo not given) -2%
COC(=O)c1c(NC(=O)CCCOc2ccccc2C)sc2c1CCC2 7.44%
COc1ccc(CNS(=O)(=O)c2ccc3c(c2)C(C)(C)C(=O)N3C)cc1OC 9.27%
O=C(NCc1ccccc1F)C(=O)NCC(c1ccco1)S(=O)(=O)c1ccccc1 (stereo not given) -2.49%
Cc1ccc(C)c(NS(=O)(=O)c2ccc3c(c2)CCCN3C(=O)C2CCC2)c1 -2.45%
Cc1ccc(C(C)C)c(OCC(=O)Nc2ccc(-c3nc4ncccc4o3)cc2C)c1 -9.16%
COc1ccc(C(C(=O)NCc2ccccc2)N(C(=O)Cn2nnc3ccccc32)c2ccc(OC)cc2)cc1 (stereo not given) 0.309%
O=C1CC(=O)Nc2cc(S(=O)(=O)Nc3cccc(Br)c3)ccc2N1 1.16%
COC(=O)c1cc2sc(Cl)cc2n1Cc1nc(-c2ccccc2F)oc1C -7.23%
Cc1ccc(CCNC(=O)c2ccc(CNS(=O)(=O)c3ccc(F)cc3)cc2)cc1 -7.19%
CC(=O)N1CCc2c(sc(NC(=O)CSc3ccc(C)cc3)c2-c2nc3ccccc3s2)C1 1.72%
CCOC(=O)C1=C(CS(=O)(=O)c2ccc(F)c(C)c2)NC(=O)NC1c1ccc(F)c(F)c1 (stereo not given) -14.3%
Cc1c(C(=O)Nc2ccccc2Cl)oc2ccc(S(=O)(=O)N3CCCCCC3)cc12 5.13%
Cc1cccc(N2CCN(C(=O)c3cccc(-n4c(C)nc5cccnc54)c3)CC2C)c1 (stereo not given) -0.283%
Cc1cc(C)cc(NC(=O)Nc2c[nH]c(=O)[nH]c2=O)c1 -3.25%
Cc1cc(C)c2c(n1)SCC(=O)N2CC(=O)Nc1c(C)cccc1C -5.74%
COc1ccc(NS(=O)(=O)c2cc3c4c(c2)CC(=O)N4CCC3)cc1Cl -2.38%
O=C(NC1(C(F)(F)F)N=C(c2ccccc2)N(C2CCCCC2)C1=O)c1ccccc1F (stereo not given) -11.4%
COc1ccc(-c2noc(CSc3nnc(-c4ccncc4)n3-c3cccc(C)c3)n2)cc1OC 1.37%
Cc1ccc(-c2cc(-c3coc4ccccc4c3=O)c3c(n2)-c2cc(Cl)ccc2OC3)cc1 -1.7%
CC(=O)Nc1ccc(-c2nnc3n(CC(C)C)c(=O)c4ccccc4n23)cc1 -18.2%
Cc1cc(C)cc(NC(=O)NCC2CCN(Cc3cc(C)ccc3C)CC2)c1 -1.89%
COc1ccccc1NC(=O)Cn1c(SCC(=O)NCc2ccccc2)nc2ccccc21 0.934%
COc1ccc(CCC(=O)NCCc2csc(-c3cccc(F)c3)n2)cc1 0%
CCc1ccc(OCC2c3cc(OC)c(OC)cc3CCN2C(=O)Cc2ccc(OC)c(OC)c2)cc1 (stereo not given) 8.53%
COc1cc2c(cc1NC(=O)C(C)Oc1ccc(Cl)cc1Cl)oc1ccccc12 (stereo not given) -2.8%
COc1ccc(NC(=O)c2oc3ccc4c(c3c2C)C(=O)CC(C)(C)O4)cc1OC 1.04%

Potency, active:
CC(=O)Nc1ccc(NC(=O)c2nc(S(=O)(=O)Cc3ccc(F)cc3)ncc2Cl)cc1 5.21 µM
